B1: LINE1-mini (parent)
chain: GGCAGAGCUCAACACAGCGUGGCAAAGUGGCUGUGGCUAGACUGCC

Read counts are not given, so values of variants with three or more changes are uncertain.

The variants in the data set derive from B1. The data set can be described thus: self-cleavage, relative activity (ratio to wild type); higher = more cleavage; in vitro, sequencing; the parent is a self-cleaving ribozyme.
A4C A16U A41C: the self-cleavage came to 0.04. Consider A4C G5U C31U, for which the self-cleavage came out at 0. With A4C C8G G35A A41U, the self-cleavage amounted to 0.28. Take A4C G17A G19A: the self-cleavage stood at 0.27.

A4C G33U G35U C45A: the self-cleavage stood at 0.33.

A4C A11G G19U: the self-cleavage came out at 0.01. A4G A6G A12C U20G G22U G40C: the self-cleavage is 0.01. The same measure for A4C G5U A12U G29U U38A: 0.86; for A4C G22A C23G: 0.21; for A4C G27A G33A: 0.19. Consider A4C G27A G33U, for which the self-cleavage was determined as 0.02. Take A4C G5U C8A C37A: the self-cleavage stood at 0.04. For the variant A4C A16C U20G C31A G33U, the self-cleavage worked out at 0.1. Take A4G A6G A24U G30U: the self-cleavage stood at 0.09. For the variant A4C C13A U38A, the self-cleavage turned out to be 0.03. Turning to A4C C18A C23G A24C G30U C31A G40C G44A, the self-cleavage is 0. For A4C U9A G27A G30U the value was 0.19. The same measure for A4C G5C G40C: 0.03. For A4C G5C A6U C13A the value was 0.2; for A4C U9C G21A U43C, 0.01. With A4C C8A A41G, the self-cleavage was 0.39. In the case of A4C A14U U34A A41U, the self-cleavage stood at 0.08. On to A4C C10A G30A A41G C42A, for which the self-cleavage was 0.01. For A4C C13U G30A C37A C42U the value was 0.09; for A4C G17U C42A U43A, 0.1. As to A4C A11G C15A G33A U34C, the self-cleavage was 0.01. A4C C10U G22U G30A G35U G40U: the self-cleavage turned out to be 0.03. For A4C G7A A26U G36U the value was 0.22.

Take A4C C10U A16G C23G G44C: the self-cleavage is 0.04.

For the variant A4C A12U A39C, the self-cleavage was determined as 0.06. For A4C C10U A41U, the self-cleavage was determined as 0.07.

On to A4C A16U C18A U43C, for which the self-cleavage is 0.01. On to A4C G5U A12U A16U C46U, for which the self-cleavage worked out at 0.03. As to A4C C15U A39U, the self-cleavage worked out at 0.07. As to A4C G17U G30U C45A, the self-cleavage turned out to be 0.02. For the variant A4C G33A G40A C45G, the self-cleavage is 0.09. Regarding A4C A16C G21U C31U C46A, the self-cleavage turned out to be 0.02. The same measure for A4C G27C G30C: 0.11; for A4G A6C A11C G30U: 0.01. For A4C U9A G22U U34A the value was 0.14; for A4C U32C C45A, 0.05; for A4C C10A G19A G21A C37A U43G, 0. The same measure for A4C G7C C18G: 0.12; for A4C G7A C13G C31A: 0.11. For the variant A4C C15U A24G G30A, the self-cleavage was 0.11. Consider A4C A6U U34G, for which the self-cleavage came to 0. For A4C C18A A39U C42U the value was 0.04; for A4C A11G C31A U32A U34A C42U, 0.01; for A4C C8U G17A C23A A26U, 0.23.

A4G A6G C15G A16U: the self-cleavage is 0.02. Take A4C C10G C31A G35C G36A C42G: the self-cleavage stood at 0.02. With A4C G17C A24G G33C, the self-cleavage amounted to 0.1.

On to A4C A12G U43A C46G, for which the self-cleavage was 0.01. Consider A4C G22C U32C G44U, for which the self-cleavage amounted to 0.04. As for A4C C31U A39C C42U G44U, the self-cleavage worked out at 0.01.

For the variant A4C C10G G19U U34G, the self-cleavage stood at 0.02.

For the variant A4C C8A G17U G33U, the self-cleavage is 0.27. For the variant A4C C8A C10A G17C C18G A25C, the self-cleavage stood at 0.02. As to A4C A11G G19U G22C U32C C46A, the self-cleavage turned out to be 0.01. Turning to A4C A11U C46U, the self-cleavage came to 0.01. Regarding A4C G19C U20C A25C G36U, the self-cleavage amounted to 0. For A4C U9C A25G U38G, the self-cleavage was determined as 0.01. Turning to A4C G5U G7U C15A G29C, the self-cleavage is 0.95. As for A4C C10A A12G G30U, the self-cleavage is 0.

Regarding A4C C18U G21A, the self-cleavage stood at 0.09. Consider A4C C10A G22U, for which the self-cleavage was 0.01. In the case of A4C A12G U32G G35A, the self-cleavage came out at 0.21. A4C C18U G33U C37G: the self-cleavage was 0.04. Take A4C G21C G44C: the self-cleavage amounted to 0.08. Regarding A4C C18A A24C A25G G30U, the self-cleavage came out at 0.01. As to A4C C13G G22C G40C, the self-cleavage amounted to 0.04. The same measure for A4C C18U C46U: 0.04; for A4C C10U A12C G33A G44C: 0.03. For A4C C18A G30U C42A the value was 0.82; for A4C A12G G29U G44A C45A, 0.04; for A4C C13G A41G, 0.02. The same measure for A4C C8A C18A U20A A39U: 0.04; for A4C A12G C13U C23G C31G C45U: 0; for A4C C13U G17A G21U G33C U34A G44U: 0.01. Turning to A4C G29A G40U, the self-cleavage turned out to be 0.02. Consider A4C G29A G40A, for which the self-cleavage amounted to 0.65. Take A4C A24U G30U: the self-cleavage was 0.37. For A4C G7U C10A C13G G17C U32G U43A the value was 0; for A4C U9A C10A G17A, 0.04; for A4C G29C C31G U34C, 0.06. With A4C C10U U28G C31U, the self-cleavage was 0.02.

On to A4C U9C G22U G29A C31U, for which the self-cleavage came out at 0.01. As for A4C C10A G35C C46U, the self-cleavage was determined as 0.04. Turning to A4C A11G A12U G35C, the self-cleavage worked out at 0.01. Take A4C G7C G19U G22U U28C U43G C45A: the self-cleavage worked out at 0.01. The same measure for A4C A39G C46U: 0.19. With A4C A12U A25C, the self-cleavage is 0.03. For A4C C13A C15A, the self-cleavage was found to be 0.14. For the variant A4C A24U G33U, the self-cleavage turned out to be 0.04. As for A4C G7C A11U, the self-cleavage amounted to 0.02. Regarding A4G A6C A11G, the self-cleavage turned out to be 0.02. Consider A4C G22A G30C C45A, for which the self-cleavage worked out at 0.08. The same measure for A4C C18A G27C: 0.01; for A4C G7C G29A: 0.04; for A4C C8A U43C: 0.1.

Regarding A4C G7A C8U G21U A26G G30A, the self-cleavage came out at 0.53. The same measure for A4C G29A C46G: 0.03. As to A4C C13A G30U, the self-cleavage came to 0.05. Consider A4C G19A G21C U38G C45U, for which the self-cleavage is 0.04. Turning to A4C G5U G7U A12C G30U, the self-cleavage was determined as 0.06. For A4C G5U A6G C37A U43A the value was 0.14. The same measure for A4C C23U A25U A26C G40A: 0.08; for A4C U9A C10A U28C: 0.03; for A4C A12C G19U U38A C42A: 0. In the case of A4C C31U G44U, the self-cleavage stood at 0.05. For the variant A4C C31U G44C, the self-cleavage stood at 0. As to A4C G5U G27C G36U, the self-cleavage turned out to be 0.08. A4G A6C G7C G17U U38C: the self-cleavage came to 0.06. For A4C G17U G29U C31G U32C the value was 0.03; for A4C G22A A24C G33A, 0.06; for A4C G22C C46U, 0.03.

For A4C C15U G40A, the self-cleavage came out at 0.09. With A4C U32A C37G, the self-cleavage was determined as 0.02. As for A4C A11C C23A C45A, the self-cleavage came out at 0. The same measure for A4C C10A U20A A25C G30U C42U: 0.01; for A4C C15A A16G A39C C42U: 0.04.

For the variant A4C C37U U38A, the self-cleavage was 0.07. As for A4C C23G G35U G40A C42G, the self-cleavage is 0.08.

For the variant A4C U9C C15A A24C G35C C46A, the self-cleavage was determined as 0.01.

As to A4C G7U A11G A26U G35A G40C, the self-cleavage is 0.02. For A4C C37A A39C, the self-cleavage was 0.19.

Take A4C G19A G30U: the self-cleavage was determined as 0.74. Turning to A4C C8G U9A, the self-cleavage is 0.07. With A4C G7C U34C U38G, the self-cleavage was 0.04. On to A4C U20G C46A, for which the self-cleavage is 0.1. Take A4C A11C A16G G19A: the self-cleavage turned out to be 0.01.

Turning to A4C G17U U34A, the self-cleavage was 0.15. For A4C C37U C46A the value was 0.09; for A4C A16G U28G G33C, 0.02. For A4C G5A C10G C23A C31U A39G G44A, the self-cleavage was 0.01. Turning to A4C C10U A25U G35U U43A C45A, the self-cleavage was 0.02.

As to A4C G7U C13U C15A U32A, the self-cleavage turned out to be 0.11. The same measure for A4C G21A A26C G44A: 0.05. For the variant A4C G7A C8G, the self-cleavage was found to be 0.11. As to A4C C10A U32A G33C, the self-cleavage turned out to be 0.08. Take A4G A6C G40U A41C C46U: the self-cleavage was 0.16. On to A4C A14C C23G G33C U38G, for which the self-cleavage stood at 0.02. Take A4C C15A C18U: the self-cleavage is 0.09.

As for A4C A11C C23U G29U, the self-cleavage was found to be 0.01.

Consider A4C C10A C15U, for which the self-cleavage is 0.07. For the variant A4C G17A U43G, the self-cleavage came out at 0. With A4C G5C C15A C18U C23G A24C, the self-cleavage is 0.01. The same measure for A4C A11U A25C C46A: 0.01; for A4C C13G G40C C42A: 0.28; for A4C G19A G21C: 0.09.

Consider A4C A11C C13G, for which the self-cleavage stood at 0.02. On to A4C C13U G36U, for which the self-cleavage is 0.09. On to A4C G36A U38C, for which the self-cleavage stood at 0.02. In the case of A4C A14U A16C G27A, the self-cleavage came out at 0.08. A4G A6C G17U C46A: the self-cleavage stood at 0.69. On to A4C G7A A11U A25C G40U, for which the self-cleavage was 0.05. As to A4C G19C A25C G29C, the self-cleavage was determined as 0.02. The same measure for A4C A11C G22A A25G U38G: 0.01; for A4C G22A C23A G30A U38G: 0.02.

Regarding A4C A12U C18G G19U C23U C46G, the self-cleavage is 0.01. As to A4C C10U C15A U20C, the self-cleavage amounted to 0.04.

A4C U9G A12U A14G G17U: the self-cleavage is 0.1.

With A4C A25G U32C, the self-cleavage is 0.06.

With A4C U38G A39C, the self-cleavage amounted to 0.86.

In the case of A4C G22C A26G G27A C37A, the self-cleavage stood at 0.04. For A4C A11G C15A G21C G27A, the self-cleavage is 0.02. The same measure for A4C C10A G19A: 0.01.

Values taken from the RNAGym collection of RNA variant scans (doi:10.7554/elife.90254).
